Reference: PubChem BioAssay AID504333 (National Center for Advancing Translational Sciences (NCATS), 2011)
The campaign covered roughly 360,000 compounds. About 16,000 (4.4%) were called active. Inconclusive results, whose numbers are uncertain, are shown with a selection of clear calls. Calls come from the whole dose curve; as a rule, active = well fitted inhibition curve with a large enough effect; inconclusive = small, poorly fitted or top-dose-only effect; inactive = no such curve, though single readings can be large or run the other way. Where the call is inconclusive, the potency comes from a doubtful curve fit.
% is set by controls: 0 for no effect and ±100 for the full control effect; potency is the fitted concentration of half-maximal effect; tags give direction and shape of the fitted curve.
Note: nearly all actives have a fitted effect of over 60% in size.

These compounds were tested against Bromodomain adjacent to zinc finger domain protein 2B (Homo sapiens) (UniProt Q9UIF8) (assay: qHTS Assay for Inhibitors of BAZ2B). Conditions: AlphaScreen BAZ2B-H3K14Ac peptide displacement; activity change, negative = inhibition: at 114 µM (top of the series) unless noted.
UniProt Q9UIF8, sequence (Q9UIF8 whole entry, looked up, the tested form may be a part): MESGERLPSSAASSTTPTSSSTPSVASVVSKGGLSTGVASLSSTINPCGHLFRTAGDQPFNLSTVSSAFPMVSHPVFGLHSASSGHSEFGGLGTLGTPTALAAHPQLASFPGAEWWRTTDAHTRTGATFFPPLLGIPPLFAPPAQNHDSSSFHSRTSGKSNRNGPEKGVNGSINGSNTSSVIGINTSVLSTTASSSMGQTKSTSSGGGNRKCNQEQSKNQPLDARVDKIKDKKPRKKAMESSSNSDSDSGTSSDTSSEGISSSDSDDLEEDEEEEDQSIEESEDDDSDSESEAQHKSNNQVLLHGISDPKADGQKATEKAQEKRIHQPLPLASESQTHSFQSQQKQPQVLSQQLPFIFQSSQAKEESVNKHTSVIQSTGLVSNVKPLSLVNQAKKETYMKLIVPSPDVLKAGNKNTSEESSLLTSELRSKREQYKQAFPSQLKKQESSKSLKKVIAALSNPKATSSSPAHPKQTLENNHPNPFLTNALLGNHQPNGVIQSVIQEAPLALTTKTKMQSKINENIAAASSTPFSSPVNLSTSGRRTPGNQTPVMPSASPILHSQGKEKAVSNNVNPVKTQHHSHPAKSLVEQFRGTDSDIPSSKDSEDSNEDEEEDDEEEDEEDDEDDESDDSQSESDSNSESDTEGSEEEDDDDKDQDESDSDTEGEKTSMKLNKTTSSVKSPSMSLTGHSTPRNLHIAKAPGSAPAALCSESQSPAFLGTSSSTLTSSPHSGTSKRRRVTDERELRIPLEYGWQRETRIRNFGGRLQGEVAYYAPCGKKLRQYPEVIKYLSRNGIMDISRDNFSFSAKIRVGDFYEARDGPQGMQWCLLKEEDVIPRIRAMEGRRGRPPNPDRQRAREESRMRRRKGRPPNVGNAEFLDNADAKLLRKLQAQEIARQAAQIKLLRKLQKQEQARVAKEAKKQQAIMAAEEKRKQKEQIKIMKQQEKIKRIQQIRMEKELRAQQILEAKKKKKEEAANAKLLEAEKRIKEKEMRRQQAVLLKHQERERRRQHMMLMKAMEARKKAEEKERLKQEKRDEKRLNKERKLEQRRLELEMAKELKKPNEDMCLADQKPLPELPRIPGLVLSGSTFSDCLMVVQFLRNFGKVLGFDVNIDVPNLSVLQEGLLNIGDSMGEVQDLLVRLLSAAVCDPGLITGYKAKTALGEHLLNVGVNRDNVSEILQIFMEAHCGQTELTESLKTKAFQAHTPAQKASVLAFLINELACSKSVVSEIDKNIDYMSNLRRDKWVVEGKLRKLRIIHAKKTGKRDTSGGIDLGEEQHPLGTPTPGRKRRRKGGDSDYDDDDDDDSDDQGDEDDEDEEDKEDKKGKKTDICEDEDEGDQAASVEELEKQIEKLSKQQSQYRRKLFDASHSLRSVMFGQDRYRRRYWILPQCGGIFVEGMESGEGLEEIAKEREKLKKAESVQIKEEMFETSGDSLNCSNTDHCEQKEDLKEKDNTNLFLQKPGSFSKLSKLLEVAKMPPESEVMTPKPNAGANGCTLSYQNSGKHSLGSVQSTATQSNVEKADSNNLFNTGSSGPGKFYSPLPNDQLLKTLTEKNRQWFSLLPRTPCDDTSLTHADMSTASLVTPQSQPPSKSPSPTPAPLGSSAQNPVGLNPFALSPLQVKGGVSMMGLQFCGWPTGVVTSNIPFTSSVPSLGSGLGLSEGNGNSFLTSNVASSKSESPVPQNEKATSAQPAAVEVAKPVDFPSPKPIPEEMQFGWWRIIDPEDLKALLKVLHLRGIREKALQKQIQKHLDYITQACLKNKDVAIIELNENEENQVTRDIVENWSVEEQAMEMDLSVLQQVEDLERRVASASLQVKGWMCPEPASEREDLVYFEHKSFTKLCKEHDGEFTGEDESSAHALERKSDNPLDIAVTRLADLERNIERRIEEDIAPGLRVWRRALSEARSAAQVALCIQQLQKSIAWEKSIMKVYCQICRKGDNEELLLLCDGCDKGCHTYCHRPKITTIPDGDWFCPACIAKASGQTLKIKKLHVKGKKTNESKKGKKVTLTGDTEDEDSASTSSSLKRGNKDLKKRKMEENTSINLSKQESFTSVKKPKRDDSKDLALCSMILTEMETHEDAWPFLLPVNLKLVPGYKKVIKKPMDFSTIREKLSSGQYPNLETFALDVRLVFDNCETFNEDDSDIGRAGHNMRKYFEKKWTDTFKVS
Summary of the method: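 Compounds, titrated to a top concentration of 110 uM, were incubated 30 min at room temperature with preformed BAZ2B/acetyl-K14 H3 peptide complex (50 nM each). Proximity signal was measured by AlphaScreen after 20 min with beads.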
COc1cc(/C=C2\C(=O)N(c3ccc(S(N)(=O)=O)cc3)N=C2C)ccc1OC(=O)c1ccco1 was tested, and the Potency was inconclusive: 50.1 µM [inhibitor, partial curve]. With CCOC(=O)c1sc(NC(=O)c2ccc3nc[nH]c3c2)nc1C the Potency was inconclusive: 50.1 µM [inhibitor, partial curve]. With Cc1nn(-c2ccc(F)cc2)c(Cl)c1C(=O)OC(C)C(=O)N(C)C1CCCCC1 (configuration not stated) the “activity change, negative = inhibition” value was inactive: 0.677%. With Cc1cc2ccccc2c(=O)n1CC(=O)NCc1ccco1 the Potency was inconclusive: 100 µM [inhibitor, single point]. With CCCN(CCC)CCCNS(=O)(=O)c1ccc2c(c1)oc(=O)n2C the “activity change, negative = inhibition” value was inactive: 11.7%. With O=C(CCC(=O)N1CCOc2ccc(Cl)cc21)NCCCN1CCC(Cc2ccccc2)CC1 the “activity change, negative = inhibition” value was inactive: -36.6%. With Cc1ccc(C(=O)c2oc3ccccc3c2NC(=O)Cc2coc3c(C)c(C)ccc23)cc1 the “activity change, negative = inhibition” value was inactive: -3.98%. In the case of COc1ccc([N+](=O)[O-])cc1/C=N/Nc1nn[nH]n1, the Potency is reported as inconclusive: 89.1 µM [inhibitor, single point]. Cc1ccc(C)c(-n2nnnc2SCC(=O)c2ccc3c(c2)NC(=O)CO3)c1 was tested, and the Potency was inconclusive: 56.2 µM [inhibitor, partial curve]. In the case of O=C(NCC(=O)N(Cc1cccs1)C(C(=O)NC1CCCC1)c1ccncc1)c1ccco1 (configuration not stated), the Potency is reported as inconclusive: 89.1 µM [inhibitor, single point]. With CCOC(=O)c1sc(SCC(=O)Nc2ccc(N(C)C)cc2)nc1N the Potency was active: 44.7 µM. CNCCCOc1cccc(Oc2ccccc2)c1 was tested, and the Potency was active: 50.1 µM. In the case of CC(C)=CCC/C(C)=C/CC/C(C)=C/CC/C(C)=C/CC1=C(C)C(=O)c2ccccc2C1=O, the Potency is reported as inconclusive: 79.4 µM [inhibitor, single point]. For NC(=S)NNC(=O)[C@@H]1CCCC[C@@H]1C(=O)O, the “activity change, negative = inhibition” value was inactive: -5.87%. With COCc1c(C(=O)NC2CCCCC2)sc2cccc(F)c12 the “activity change, negative = inhibition” value was inactive: 12%. Cc1noc2nc(C(=O)O)nc(N3CCCCC3)c12 was tested, and the Potency was inconclusive: 89.1 µM [inhibitor, single point]. For CCCCC(=O)Nc1nnc(-c2ccco2)o1, the Potency was active: 79.4 µM. For COc1cccc(N2CC(NC(=O)COc3ccc4ccccc4c3)CC2=O)c1 (configuration not stated), the “activity change, negative = inhibition” value was inactive: -1.14%. For CCc1nnc(SCC(=O)Nc2cc(Cl)c(OC)cc2OC)c2cc3oc(C)cc3n12, the “activity change, negative = inhibition” value was inactive: -13.5%. With COc1ccc(OC)c(NC(=O)c2cc3sccc3n2C)c1 the Potency was inconclusive: 89.1 µM [inhibitor, single point]. In the case of O=C(NCc1ccco1)c1ccc([N+](=O)[O-])o1, the Potency is reported as active: 44.7 µM. For Cn1c(=O)c2c(nc(NCc3ccco3)n2CC(O)COc2ccccc2)n(C)c1=O (configuration not stated), the Potency was inconclusive: 22.4 µM [inhibitor, single point]. COc1cc2c(cc1OC)C(c1ccc(Br)cc1)CC(=O)N2 (configuration not stated) was tested, and the Potency was inconclusive: 50.1 µM [inhibitor, partial curve]. In the case of Cc1cccc(/C=N\NC(=O)c2csnn2)c1, the Potency is reported as inconclusive: 89.1 µM [inhibitor, single point]. For Cc1ccc(S(=O)(=O)N(CCC(=O)N2CCOCC2)c2ccccc2)cc1, the “activity change, negative = inhibition” value was inactive: -5.16%. With O=C(O)CS(=O)(=O)c1ccc(C(F)(F)F)cn1 the “activity change, negative = inhibition” value was inactive: -2.56%. For CCN1/C(=C2\C(=O)N(C)C(=S)N2C)C=Cc2cc(OC)ccc21, the Potency was active: 56.2 µM. CCN1CCN(CC(=O)N2CCCC(C(=O)c3ccc(Oc4ccccc4)cc3)C2)CC1 (configuration not stated) was tested, and the Potency was active: 50.1 µM. With COC(=O)c1c(NC(=O)CSc2nnc3ccccn23)sc2c1CCC2 the Potency was inconclusive: 100 µM [inhibitor, single point]. In the case of CCN1CCN(c2cc(C)c3cc(NC(=O)c4ccc(Br)o4)ccc3n2)CC1, the Potency is reported as active: 70.8 µM. With Nc1ccc(Sc2ccc([N+](=O)[O-])cc2)cc1 the Potency was active: 35.5 µM. CCOC(=O)c1c(NC(=O)COC(=O)c2ccccn2)sc(C)c1C was tested, and the Potency was inconclusive: 79.4 µM [inhibitor, single point]. In the case of O=C(O)COc1ccccc1/C=N/NC(=O)CNC(=O)c1ccco1, the “activity change, negative = inhibition” value is reported as inactive: -24.4%. CCCn1c(=O)c2sccc2n2c(CCCC(=O)Nc3ccc(C)c(F)c3)nnc12 was tested, and the “activity change, negative = inhibition” value was inactive: -7.97%. For CCc1ccc(S(=O)(=O)/N=C2\C=CC(=O)c3ccccc32)cc1, the Potency was active: 35.5 µM. With Cc1cccc(N2C(=O)/C(=C/c3cccnc3)SC2=S)c1 the Potency was inconclusive: 7.08 µM [inhibitor, full curve, poor fit]. For CCCCN(CC)C(=O)Nc1ccc2c(c1)N(C)C(=O)c1ccccc1S2, the Potency was inconclusive: 70.8 µM [inhibitor, partial curve]. For CCOc1ccc(C2C(C(=O)c3ccco3)=C(O)C(=O)N2CCCn2ccnc2)cc1OC (configuration not stated), the Potency was active: 50.1 µM. [O-][n+]1onc2c1CCC(=N/O)/C2=N\Nc1ccccc1 was tested, and the Potency was active: 50.1 µM. With COc1ccc(N2CCN(C3CCCN(Cc4ccc(F)cc4Cl)C3)CC2)cc1 (configuration not stated) the Potency was inconclusive: 44.7 µM [inhibitor, partial curve]. COc1ccc(-c2oc3cc(O)c(OC)c(O)c3c(=O)c2OC)cc1 was tested, and the Potency was inconclusive: 79.4 µM [inhibitor, single point]. CSc1nnc(-c2cccc(NC(=O)c3ccccc3)c2)n1C was tested, and the “activity change, negative = inhibition” value was inactive: -25%. For Cc1ccc(N(CC(=O)N/N=C/c2ccco2)S(=O)(=O)c2ccccc2)cc1, the Potency was inconclusive: 50.1 µM [inhibitor, single point]. With CN1CCN(CC(=O)Nc2cc(N(C)C)nc3ccccc23)CC1 the Potency was inconclusive: 89.1 µM [inhibitor, single point]. For Cc1ccc(S(=O)(=O)NC(=O)c2cc(C)n(CC(c3ccccc3)N(C)C)c2C)cc1 (configuration not stated), the “activity change, negative = inhibition” value was inactive: -22.8%. In the case of Cc1cccc(NC(=O)Cn2cc(C(=O)c3ccco3)c3ccccc32)c1C, the Potency is reported as inconclusive: 89.1 µM [inhibitor, single point]. With COc1ccc(CN2C(=O)C(NC(=O)c3ccccc3C)(C(F)(F)F)N=C2c2ccccc2)cc1 (configuration not stated) the “activity change, negative = inhibition” value was inactive: -25%. For COc1ccc(NC(=S)N(CCCN2CCCC(C)C2)Cc2cccs2)cc1 (configuration not stated), the Potency was inconclusive: 28.2 µM [inhibitor, full curve, poor fit]. O=C(Nc1ccc(N2CCOCC2)cc1)c1cc2c(s1)CCCC2 was tested, and the Potency was active: 39.8 µM. With CCn1ccnc1CN1CCc2c([nH]c3ccccc23)C1C(C)(C)C (configuration not stated) the Potency was inconclusive: 50.1 µM [inhibitor, partial curve]. With CCN1CCN(c2cc(C)c3cc(NC(=S)N4CC(C)CC(C)C4)ccc3n2)CC1 (configuration not stated) the Potency was inconclusive: 31.6 µM [inhibitor, partial curve]. With O=C(Nc1ccccc1)c1cccc(=O)o1 the “activity change, negative = inhibition” value was inactive: -3.15%. With O=C(Nc1ccccc1Cc1ccccc1)C1CC(=O)N(c2ccc3c(c2)OCCO3)C1 (configuration not stated) the Potency was active: 50.1 µM. With COc1ccc(N(CC(=O)O)S(=O)(=O)c2ccc(OC)c(OC)c2)cc1 the Potency was inconclusive: 89.1 µM [inhibitor, single point]. In the case of CCOC(=O)NC(=O)CSc1nc(-c2ccc(C)c(C)c2)cn1-c1ccccc1, the Potency is reported as active: 35.5 µM. COc1cccc(CNCc2ccccc2Br)c1OC was tested, and the Potency was inconclusive: 89.1 µM [inhibitor, single point]. Cc1cccc(NC(=S)NC(=O)/C=C/c2ccco2)c1 was tested, and the Potency was active: 44.7 µM. In the case of Cc1ccc2cccc(N)c2n1, the Potency is reported as inconclusive: 89.1 µM [inhibitor, single point]. Cc1cc(C(=O)COC(=O)COc2ccc(C#N)cc2)c(C)n1C1CC1 was tested, and the Potency was inconclusive: 89.1 µM [inhibitor, single point]. For CC/C(C)=N/Nc1nc2c(c(=O)[nH]c(=O)n2C)n1Cc1ccccc1, the Potency was inconclusive: 44.7 µM [inhibitor, partial curve]. With Cc1nc(Nc2ccccc2)sc1C(=O)Nc1ccccc1 the “activity change, negative = inhibition” value was inactive: -38.8%. In the case of CCOc1ccc(OCC)c(NC(=O)CN2CCN(CC)CC2)c1, the Potency is reported as inconclusive: 79.4 µM [inhibitor, single point]. For NC(=O)c1ccc(NCC2COc3ccccc3O2)c([N+](=O)[O-])c1 (configuration not stated), the Potency was inconclusive: 79.4 µM [inhibitor, single point]. For O=C(Nc1ccc(F)cc1F)c1noc2c1CCc1ccccc1-2, the “activity change, negative = inhibition” value was inactive: 3.97%. With Cc1ccccc1CC1SC(N=C(N)N)=NC1=O (configuration not stated) the “activity change, negative = inhibition” value was inactive: 2.78%. With O=C1CCc2cc(S(=O)(=O)Nc3ccc(F)cc3)ccc2N1 the “activity change, negative = inhibition” value was inactive: 4.03%. With CC(C)c1cnc2c(c1SCc1cccc(C(F)(F)F)c1)c(=O)n(C)c(=O)n2C the Potency was inconclusive: 100 µM [inhibitor, single point]. In the case of N=C1/C(=C\c2ccc(-c3cccc(C(=O)O)c3)o2)C(=O)N=C2SC=C(c3ccccc3)N12, the Potency is reported as active: 22.4 µM. For COc1cccc(/C=N/Nc2nc(Nc3ccccc3)nc(-n3nc(C)cc3C)n2)c1O, the “activity change, negative = inhibition” value was inactive: -28.9%. Cc1ccc(/C(N)=N/OC(=O)Cc2ccccc2)cc1 was tested, and the “activity change, negative = inhibition” value was inactive: 237%. NC1=C(c2ccc(F)cc2)C(=O)CS1 was tested, and the Potency was inconclusive: 56.2 µM [inhibitor, partial curve]. In the case of COc1cc(NC(=O)c2sc(C)nc2C)c(OC)cc1NC(=O)c1ccccc1, the “activity change, negative = inhibition” value is reported as inactive: -5.32%. For NC(=O)c1cc(S(=O)(=O)NCC2CCC(C(=O)Nc3ccc(Cl)cc3)CC2)cs1 (configuration not stated), the “activity change, negative = inhibition” value was inactive: -1.24%. With Cc1ccc(NC(=O)C2CC=CCC2C(=O)N2CCCCC2)cc1 (configuration not stated) the Potency was inconclusive: 89.1 µM [inhibitor, single point]. Cc1nc(NC(=O)/C=C/c2ccc(C(C)(C)C)cc2)sc1C(=O)N(C)C was tested, and the “activity change, negative = inhibition” value was inactive: -3.25%. O=C(c1cc([N+](=O)[O-])ccc1Cl)N1c2ccccc2Sc2ccccc21 was tested, and the Potency was inconclusive: 20 µM [inhibitor, full curve]. In the case of COc1cc(-c2noc(C)c2/C=C/c2cccc([N+](=O)[O-])c2)cc(OC)c1OC, the Potency is reported as inconclusive: 44.7 µM [inhibitor, partial curve].
